In PubChem BioAssay AID485297 (National Center for Advancing Translational Sciences (NCATS), 2010):
About 9,100 (2.8%) of roughly 320,000 compounds were called active. Inconclusive results, whose numbers are uncertain, are shown with a selection of clear calls. The call rests on the fitted dose curve; in most records, active means well fitted activation curve with a large enough effect; inconclusive means small, poorly fitted or top-dose-only effect; inactive means no such curve, though single readings can be large or run the other way. Potencies of inconclusive entries are left out as doubtful fits.

Assay: qHTS Assay for Rab9 Promoter Activators; further: nearly all actives have a fitted effect of over 60% in size
Conditions: Huh7 Rab9 promoter-luciferase reporter, luminescence, 24 h; series mostly up to 9.22 µM
In short: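 Cell-based reporter: Huh7 stable for Rab9 promoter-driven luciferase, plated in reduced-serum medium with 10% FBS at 1500 cells/well, compound-treated 24 h at 37 °C, luminescence read after 10 min reagent.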
Potency means the concentration at half of the fitted maximal effect; tags describe the fitted curve by direction and shape.

Compound | Potency
O=C(CCn1cnnn1)N1CCCC(Nc2ccc(F)cc2)C1 (stereo not given) | inactive
O=c1cc(/C=C/c2ccccc2)oc2ccccc12 | active: 2.24 µM
Cc1ccc(NC(=O)CC2COc3ccccc3O2)cc1 (stereo not given) | inconclusive [activator, partial curve]
Cc1ccc(Cn2c(/C=C/c3ccco3)nc3ccccc32)cc1 | inconclusive [activator, single point]
CC(C)(C)c1ccc(OC2=CS(=O)(=O)c3ccccc32)cc1 | inconclusive [activator, single point]
Cc1ccc(OCn2c(=O)sc3ccccc32)cc1 | inconclusive [activator, partial curve]
CC(C)(C)C1CCc2c(sc(NC(=O)c3cccs3)c2C(=O)N2CCCCC2)C1 (stereo not given) | inactive
COc1ccccc1C1=NC(c2ccc(F)cc2)N=C1C (stereo not given) | inconclusive [activator, partial curve]
Clc1ccc(CONc2ncnc3nonc23)c(Cl)c1 | active: 3.55 µM
COc1ccc(-c2nc(CS(=O)(=O)CC(=O)NCCc3cc(OC)ccc3OC)c(C)o2)cc1 | inactive
CSc1sc(C(=O)O)c2c1C(=O)CCC2 | inactive
O=C(CCCl)N1CCN(c2nc(-c3ccccc3)cs2)CC1 | inconclusive [activator, partial curve]
Cc1ccc(/C=N/Nc2nnc(Cl)c3ccccc23)cc1 | inconclusive [activator, single point]
CC(C(=O)c1c[nH]c(C(=O)N=CN(C)C)c1)c1ncc(C(F)(F)F)cc1Cl (stereo not given) | inactive
Cc1cc(C)nc(SCC(=O)c2cc3ccccc3oc2=O)n1 | inactive
O=c1oc2ccccc2cc1-c1csc(NN=C2CCCCC2)n1 | inconclusive [activator, partial curve]
COc1cc(SC)ccc1C(=O)NCCOc1ccc(F)cc1 | inconclusive [activator, single point]
Cc1nc2sc(-c3ccccc3)cc2c(=O)n1/N=C/N(C)C | active: 2.82 µM
O=C(CCCc1ccccc1)Nc1ccccc1[N+](=O)[O-] | inconclusive [activator, partial curve]
COCC(C)N=C1NN=C(c2cc(C)n(Cc3ccccc3Cl)c2C)CS1 (stereo not given) | inconclusive [activator, full curve]
CC(=O)c1ccc(NC(=O)C2CC(=O)N(Cc3ccccc3)C2)cc1 (stereo not given) | inconclusive [activator, single point]
O=Cc1cccn1-c1ccc(O)cc1 | inactive
CCn1c(SCC(=O)Nc2nc(-c3ccccc3)cs2)nc2c1c(=O)n(C)c(=O)n2C | inactive
O=C(Nc1ccc(F)cc1)C1COc2ccccc2O1 (stereo not given) | inactive
Cc1ccc(S(=O)(=O)N2CCOCC2)cc1C(=O)OCC(=O)N(Cc1ccccc1)C(C)C | inactive
COc1ccc(-c2coc3cc(O)c(OC)cc3c2=O)cc1 | inconclusive [activator, single point]
COc1cccc(NC(=O)c2csc3c2CCCC3)c1 | inconclusive [activator, single point]

Compound | Potency
COc1ccc(CC2(CO)CCN(Cc3cccnc3)CC2)cc1 | inconclusive [activator, single point]
Cc1ccc(-c2csc(/C(C#N)=C(\O)CCl)n2)cc1 | inconclusive [activator, single point]
CCOC(=O)C1CCN(C(=O)c2cc3ccc(OC)cc3[nH]2)CC1 | inconclusive [activator, partial curve]
Cc1ccc(SCC(=O)Nc2nccs2)cc1 | inconclusive [activator, single point]
O=C(CNc1ccc(Br)cc1)c1ccc(Br)s1 | inconclusive [activator, single point]
COc1ccc(-c2nnc(-c3ccc(Br)o3)o2)cc1OC | inactive
CCOc1c2ccc(C(=O)N[C@H](C)C3CCCCC3)cc2nn1CCOC | inactive
COc1ccc2oc(C(=O)C3CC3)c(N)c2c1 | inconclusive [activator, partial curve]
C(=C\c1nccc2c1[nH]c1ccccc12)/c1ccccc1 | inconclusive [activator, partial curve]
O=S(=O)(Nc1cccc(-c2ccc(N3CCOCC3)nn2)c1)c1cc(Cl)ccc1Cl | inconclusive [activator, single point]
CC(=O)Cn1c(CN2CCN(C(=O)c3ccco3)CC2)nc2c1c(=O)n(C)c(=O)n2C | inactive
CC(=O)Nc1ccc(SC[C@H](CC(C)C)N2CCN(CCc3ccccc3)CCC2=O)cc1 | inactive
CCOC(=O)Nc1ccc2nc3n(c(=O)c2c1)CCCCC3 | inconclusive [activator, partial curve]
CN1/C(=C\C(=O)COC(=O)CNC(=O)c2ccc3ccccc3c2)C(C)(C)c2ccccc21 | inactive
CNC(=O)c1ccc(NC(=O)Nc2ccccc2)cc1 | inconclusive [activator, partial curve]
S=C(Nc1ccccc1)Nc1ccc(Cl)cc1Cl | inconclusive [activator, partial curve]
COc1ccc(/C=C/C(=O)NC2=NCCS2)cc1OC | active: 3.98 µM
CC(C)(C)c1ccc(OCc2ccc(C(=O)Nc3cccnc3)o2)cc1 | active: 0.355 µM
CCOc1ccc(C(=O)NC(=S)Nc2ccccn2)cc1[N+](=O)[O-] | inconclusive [activator, single point]
Cc1nc(N)nc2c1CCCC2 | inactive
CCCOc1cccc(C(=O)NC(=S)Nc2ccccc2)c1 | inconclusive [activator, single point]
Cc1nn(Cc2c(F)c(F)c(F)c(F)c2F)c(C)c1NC(=O)c1cccc(COc2ccc(Cl)cc2)c1 | inconclusive [activator, full curve]
Nn1c(SCc2ccccc2)nnc1-c1ccccn1 | inconclusive [activator, single point]
CCCC(=O)N(CCN1CCOCC1)c1nc2c(F)cc(F)cc2s1 | inconclusive [activator, single point]
Cc1ccc(S(=O)(=O)C2(C(=O)Nc3ccc(C(C)C)cc3)CC2)cc1 | inconclusive [activator, single point]
Cn1ccsc1=NC(=O)c1ccc(S(=O)(=O)C(F)F)cc1 | active: 3.55 µM
O=C(N/N=C/c1ccc(OCc2ccccc2)cc1)c1cccs1 | inconclusive [activator, partial curve]

Compound | Potency
Cc1ccc2nc(NC(=O)CCn3cccc3)sc2c1 | inconclusive [activator, single point]
COc1ccc(CNS(=O)(=O)c2ccc(-c3ccc(=O)[nH]n3)s2)cc1OC | inactive
Cc1cccc(C)c1OCCN1CCOCC1 | inactive
O=[N+]([O-])c1ccccc1S(=O)(=O)Nc1cccnc1 | inactive
O=C(Cc1ccc2c(c1)OCCO2)c1c(O)cc(O)cc1O | inconclusive [activator, partial curve]
Cc1snc2sc(C(=O)c3ccc(F)cc3)c(N)c12 | inconclusive [activator, partial curve]
S=C(NCc1ccccc1)Nc1ccc(Cl)cc1 | inactive
CCOC(=O)N/N=C/c1ccc(F)cc1F | inconclusive [activator, single point]
Cc1cccc(NC(=S)N/N=C/c2ccc([N+](=O)[O-])s2)c1 | inactive
Cc1nc(N)nc(COc2ccccc2)n1 | inconclusive [activator, single point]
COc1ccc(C(=O)CCC(=O)N2CCN(c3ccc(C)cc3)C(C)C2)cc1 (stereo not given) | inactive
COc1ccc(C(=O)Nc2nc(CC(=O)NCc3ccc(F)cc3)cs2)cc1 | inconclusive [activator, partial curve]
CCCCCCSc1nsc(NC(=O)CCC)n1 | inconclusive [activator, single point]
Cc1ccc(N2Cc3ccccc3C2=O)cc1 | active: 0.501 µM
O=C(N/N=C/c1cccc(F)c1)c1c(O)c2ccccc2[nH]c1=O | inconclusive [activator, single point]
O=C(CCN1C(=O)/C(=C\C=C\c2ccccc2)SC1=S)Nc1ccc(C(=O)O)cc1 | inactive
COc1ccc(OC)c(C(=O)N2CCC(C(=O)c3ccc(F)cc3)CC2)c1 | inactive
CCC1CN(S(=O)(=O)c2ccc3c(c2)NC(=O)CC(=O)N3)c2cc(Cl)ccc2O1 (stereo not given) | inactive
Cc1cccc2c(=O)c(C(=O)NCCc3ccccc3)c[nH]c12 | inconclusive [activator, partial curve]
CCOc1ccc(OCCCCn2cnc3ccccc3c2=O)cc1 | inactive
C/C(=N\NC(=O)c1nn(C)c(C)c1Br)c1ccc(NC(=O)C2CCCC2)cc1 | inconclusive [activator, partial curve]
CSc1ccccc1C(=O)C1CCCN(S(=O)(=O)N(C)C)C1 (stereo not given) | inactive
COc1cc2c(cc1OC)C(c1cc3cccc(C)c3[nH]c1=O)N(C(=O)c1ccco1)CC2 (stereo not given) | inactive
CN(CC(=O)NC(c1ccccc1)c1ccccc1)Cc1nc2ccccc2c(=O)[nH]1 | inactive
COc1cc(C(=O)Nc2ccc(NC(=O)c3ccccc3Cl)nc2)cc(OC)c1OC | inactive
Cc1ccc(NC(=O)c2cnc(SCC(=O)NCC3CCCO3)n(C)c2=O)cc1C (stereo not given) | inconclusive [activator, single point]
